{"source": "patent US20030181375A1", "about": "“Rapid phenotypic cell-based HIV assay” (priority 2002, published 2003)", "key": {"[1]": {"tested_on": "HIV clinical isolate A018-H112-2", "experiment": "HIV drug susceptibility assay in R3/X4/R5 cells, pre-AZT clinical isolate", "format": "cell-based", "details": "for IC50: average of four determinations; for susceptibility of the isolate to the drug (in words): judged from IC50, pre-AZT isolate"}, "[2]": {"tested_on": "HIV clinical isolate A018-G910-6", "experiment": "microbe, parasite or virus in culture", "format": "cell-based", "details": "for susceptibility of the isolate to the drug (in words): judged from IC50, post-AZT isolate; for IC50: average of four determinations"}, "[3]": {"tested_on": "HIV 89.6", "experiment": "HIV drug susceptibility assay in R3/X4/R5 cells, HIV 89.6"}, "[4]": {"tested_on": "HIV clinical isolate 93000016", "experiment": "HIV drug susceptibility assay in R3/X4/R5 cells, clinical isolate 93000016", "details": "for susceptibility of the isolate to the drug (in words): judged from IC50; for % GFP + CELLS: 48 hr, no-drug control 84.4%"}, "[5]": {"tested_on": "HIVBru", "experiment": "HIV drug susceptibility assay in R3/X4/R5 cells, HIVBru"}, "[6]": {"tested_on": "HIVIIIB", "experiment": "HIV drug susceptibility assay in R3/X4/R5 cells, GFP by flow cytometry, cell free HIVIIIB", "format": "cell-based"}, "[7]": {"tested_on": "R3/X4/R5 cells", "experiment": "GFP expression in uninfected R3/X4/R5 cells treated with drug", "format": "cell-based"}, "[8]": {"tested_on": "HIVJKNL43", "experiment": "HIV drug susceptibility assay in R3/X4/R5 cells, macrophage tropic virus", "format": "cell-based", "details": "for % GFP + CELLS: no-drug control 33.1%"}, "[9]": {"tested_on": "AZT susceptible HIV clinical isolate", "experiment": "HIV drug susceptibility assay in R3/X4/R5 cells, AZT susceptible clinical isolate", "format": "cell-based", "details": "Human immunodeficiency virus 1; no-drug control 26.8% GFP expressing cells"}, "[10]": {"tested_on": "H9 cells chronically infected with HIVIIIB", "experiment": "Drug susceptibility assay with virus infected cells as source of HIV", "format": "cell-based", "details": "0.05 μM AZT; 48 hr; 71.4% in the absence of AZT"}, "[11]": {"tested_on": "HIV clinical isolate 93000029", "experiment": "HIV drug susceptibility assay in R3/X4/R5 cells, clinical isolate 93000029", "details": "for % GFP + CELLS: 48 hr, no-drug control 34.1%"}, "[12]": {"tested_on": "HIV clinical isolate 93000057", "experiment": "HIV drug susceptibility assay in R3/X4/R5 cells, clinical isolate 93000057", "details": "for % GFP + CELLS: 48 hr, no-drug control 10.7%"}, "[13]": {"details": "Human immunodeficiency virus 1, read-out: Average IC50"}, "[14]": {"details": "read-out: Average IC50, average of four determinations"}, "[15]": {"details": "Human immunodeficiency virus 1, Table 2, 50% reduction of GFP expressing cells"}}, "note": "Read-outs that look alike come from different tables or passages of the source."}
{"smiles": "CC(C)Nc1cccnc1N1CCN(C(=O)c2cc3cc(NS(C)(=O)=O)ccc3[nH]2)CC1", "note": "[DLV, Delavirdine]", "values": [{"measurement": "IC50", "setting": "[1]; Human immunodeficiency virus 1", "result": "40 ± 10", "unit": "nM"}, {"measurement": "susceptibility of the isolate to the drug (in words)", "setting": "[1]", "result": "sensitivity"}, {"measurement": "susceptibility of the isolate to the drug (in words)", "setting": "[2]", "result": "sensitive"}, {"measurement": "IC50", "setting": "[3]; [13]", "result": "30 ± 5", "unit": "nM"}, {"measurement": "IC50", "setting": "[4]; [13]", "result": "50 ± 20", "unit": "nM"}, {"measurement": "susceptibility of the isolate to the drug (in words)", "setting": "[4]", "result": "sensitivity"}]}
{"smiles": "Nc1nc(NC2CC2)c2ncn([C@H]3C=C[C@@H](CO)C3)c2n1.O=C(O)CCC(=O)O", "note": "[ABC, Abacavir Succinate]", "values": [{"measurement": "IC50", "setting": "[1]", "result": "2520 ± 580", "unit": "nM"}, {"measurement": "susceptibility of the isolate to the drug (in words)", "setting": "[1]", "result": "sensitivity"}, {"measurement": "IC50", "setting": "[2]", "result": "2250 ± 200", "unit": "nM"}, {"measurement": "susceptibility of the isolate to the drug (in words)", "setting": "[2]", "result": "sensitive"}, {"measurement": "IC50", "setting": "[5]; [14]", "result": "1160 ± 390", "unit": "nM"}, {"measurement": "IC50", "setting": "[3]; [14]", "result": "1660 ± 540", "unit": "nM"}, {"measurement": "susceptibility of the isolate to the drug (in words)", "setting": "[4]", "result": "sensitivity"}, {"measurement": "IC50", "setting": "[4]; [14]", "result": "1600 ± 60", "unit": "nM"}]}
{"smiles": "CC(C)CN(C[C@@H](O)[C@H](Cc1ccccc1)NC(=O)O[C@H]1CCOC1)S(=O)(=O)c1ccc(N)cc1", "note": "[Amprenavir]", "values": [{"measurement": "% GFP + CELLS", "setting": "[6]; AMP 10 nM, 48 hr, no-drug control 46.3%", "result": 25.5, "unit": "%"}, {"measurement": "% GFP + CELLS", "setting": "[6]; AMP 100 nM, 48 hr, no-drug control 46.3%", "result": 1.1, "unit": "%"}, {"measurement": "% GFP + CELLS", "setting": "[6]; AMP 1000 nM, 48 hr, no-drug control 46.3%", "result": 0.1, "unit": "%"}, {"measurement": "IC50", "setting": "[6]; [15]", "result": 10.8, "unit": "nM"}, {"measurement": "% GFP + CELLS", "setting": "[7]; AMP 1000 nM", "result": 0.1, "unit": "%"}]}
{"smiles": "O=C1Nc2ccc(Cl)cc2[C@@](C#CC2CC2)(C(F)(F)F)O1", "note": "[Efavirenz]", "values": [{"measurement": "% GFP + CELLS", "setting": "[6]; EFA 1 nM, 48 hr, no-drug control 35.0%", "result": 15.7, "unit": "%"}, {"measurement": "% REDUCTION", "setting": "[6]; EFA 1 nM, reduction in GFP expressing cells vs no drug", "result": 55.14, "unit": "%"}, {"measurement": "% GFP + CELLS", "setting": "[6]; EFA 10 nM, 48 hr, no-drug control 35.0%", "result": 4.3, "unit": "%"}, {"measurement": "% GFP + CELLS", "setting": "[6]; EFA 100 nM, 48 hr, no-drug control 35.0%", "result": 0.8, "unit": "%"}, {"measurement": "IC50", "setting": "[6]; [15]", "result": 1.56, "unit": "nM"}, {"measurement": "% GFP + CELLS", "setting": "[7]; EFA 100 nM", "result": 0.2, "unit": "%"}]}
{"smiles": "Cc1cn([C@H]2C[C@H](N=[N+]=[N-])[C@@H](CO)O2)c(=O)[nH]c1=O", "note": "[AZT, Zidovudine]", "values": [{"measurement": "% GFP + CELLS", "setting": "[6]; AZT 0.1 μM, 48 hr, no-drug control 29.6%", "result": 11.6, "unit": "%"}, {"measurement": "% GFP + CELLS", "setting": "[6]; AZT 1.0 μM, 48 hr, no-drug control 29.6%", "result": 8.3, "unit": "%"}, {"measurement": "% GFP + CELLS", "setting": "[6]; AZT 10 μM, 48 hr, no-drug control 29.6%", "result": 0.4, "unit": "%"}, {"measurement": "IC50", "setting": "[6]; Human immunodeficiency virus 1, Table 3, lymphotropic virus, read-out: IC50", "result": 100, "unit": "nM"}, {"measurement": "% GFP + CELLS", "setting": "[6]; Table 3, AZT 0.1 μM, no-drug control 71.4%", "result": 35.5, "unit": "%"}, {"measurement": "% GFP + CELLS", "setting": "[6]; Table 3, AZT 1.0 μM, no-drug control 71.4%", "result": 31.5, "unit": "%"}, {"measurement": "% GFP + CELLS", "setting": "[6]; Table 3, AZT 10.0 μM, no-drug control 71.4%", "result": 29.6, "unit": "%"}, {"measurement": "% GFP + CELLS", "setting": "[6]; Table 4, AZT 0.1 μM, 48 hr, no-drug control 13.8%", "result": 0.8, "unit": "%"}, {"measurement": "% GFP + CELLS", "setting": "[6]; Table 4, AZT 1.0 μM, 48 hr, no-drug control 13.8%", "result": 0.7, "unit": "%"}, {"measurement": "% GFP + CELLS", "setting": "[6]; Table 4, AZT 10 μM, 48 hr, no-drug control 13.8%", "result": 0.5, "unit": "%"}, {"measurement": "% GFP + CELLS", "setting": "[8]; AZT 0.1 μM", "result": 14.9, "unit": "%"}, {"measurement": "% GFP + CELLS", "setting": "[8]; AZT 1.0 μM", "result": 17.1, "unit": "%"}, {"measurement": "% GFP + CELLS", "setting": "[8]; AZT 10.0 μM", "result": 11.1, "unit": "%"}, {"measurement": "IC50", "setting": "[8]; Human immunodeficiency virus 1, Macrophage", "result": 90, "unit": "nM"}, {"measurement": "IC50", "setting": "[1]; Human immunodeficiency virus 1", "result": "190 ± 20", "unit": "nM"}, {"measurement": "susceptibility of the isolate to the drug (in words)", "setting": "[1]", "result": "sensitivity"}, {"measurement": "IC50", "setting": "[2]; Human immunodeficiency virus 1", "result": "> 20000", "unit": "nM"}, {"measurement": "susceptibility of the isolate to the drug (in words)", "setting": "[2]", "result": "resistant"}, {"measurement": "IC50", "setting": "[9]", "result": 34, "unit": "nM"}, {"measurement": "% of the cells express GFP", "setting": "[10]", "result": 35.1, "unit": "%"}, {"measurement": "% GFP + CELLS", "setting": "[7]; AZT 10 μM", "result": 0.1, "unit": "%"}, {"measurement": "IC50", "setting": "[3]; [13]", "result": "30 ± 9", "unit": "nM"}, {"measurement": "% GFP + CELLS", "setting": "[4]; AZT 0.1 μM, 3.3 × 10^10 COPIES/ml", "result": 7.1, "unit": "%"}, {"measurement": "% GFP + CELLS", "setting": "[4]; AZT 1.0 μM", "result": 1.6, "unit": "%"}, {"measurement": "% GFP + CELLS", "setting": "[4]; AZT 10.0 μM", "result": 1.6, "unit": "%"}, {"measurement": "IC50", "setting": "[4]; Human immunodeficiency virus 1", "result": 60, "unit": "nM"}, {"measurement": "IC50", "setting": "[4]; [13]", "result": "60 ± 40", "unit": "nM"}, {"measurement": "% GFP + CELLS", "setting": "[11]; AZT 0.1 μM, 3.5 × 10^10 COPIES/ml", "result": 1.2, "unit": "%"}, {"measurement": "% GFP + CELLS", "setting": "[11]; AZT 1.0 μM", "result": 0.6, "unit": "%"}, {"measurement": "% GFP + CELLS", "setting": "[11]; AZT 10 μM", "result": 1.1, "unit": "%"}, {"measurement": "IC50", "setting": "[11]; Human immunodeficiency virus 1", "result": 40, "unit": "nM"}, {"measurement": "susceptibility of the isolate to the drug (in words)", "setting": "[11]; judged from IC50", "result": "susceptible"}, {"measurement": "% GFP + CELLS", "setting": "[12]; AZT 0.1 μM, 1.2 × 10^10 COPIES/ml", "result": 2.6, "unit": "%"}, {"measurement": "% GFP + CELLS", "setting": "[12]; AZT 1.0 μM", "result": 0.7, "unit": "%"}, {"measurement": "% GFP + CELLS", "setting": "[12]; AZT 10.0 μM", "result": 0.7, "unit": "%"}, {"measurement": "IC50", "setting": "[12]; Human immunodeficiency virus 1", "result": 70, "unit": "nM"}, {"measurement": "susceptibility of the isolate to the drug (in words)", "setting": "[12]; judged from IC50", "result": "susceptible"}]}
{"smiles": "Nc1ccn([C@@H]2CS[C@H](CO)O2)c(=O)n1", "note": "[3TC, Lamivudine]", "values": [{"measurement": "IC50", "setting": "[5]; [13]", "result": "1020 ± 130", "unit": "nM"}]}
